# According to the supplement of paper PMC3334620:
# In all, about 33,000 sequences were measured (“E-score (-0.5 to 0.5)”: median about -0.016, highest 2% from about 0.32 on). This is one part of the list.
# Biological target: T1, Stp1 (UniProt B3LFK1)
# T1 sequence: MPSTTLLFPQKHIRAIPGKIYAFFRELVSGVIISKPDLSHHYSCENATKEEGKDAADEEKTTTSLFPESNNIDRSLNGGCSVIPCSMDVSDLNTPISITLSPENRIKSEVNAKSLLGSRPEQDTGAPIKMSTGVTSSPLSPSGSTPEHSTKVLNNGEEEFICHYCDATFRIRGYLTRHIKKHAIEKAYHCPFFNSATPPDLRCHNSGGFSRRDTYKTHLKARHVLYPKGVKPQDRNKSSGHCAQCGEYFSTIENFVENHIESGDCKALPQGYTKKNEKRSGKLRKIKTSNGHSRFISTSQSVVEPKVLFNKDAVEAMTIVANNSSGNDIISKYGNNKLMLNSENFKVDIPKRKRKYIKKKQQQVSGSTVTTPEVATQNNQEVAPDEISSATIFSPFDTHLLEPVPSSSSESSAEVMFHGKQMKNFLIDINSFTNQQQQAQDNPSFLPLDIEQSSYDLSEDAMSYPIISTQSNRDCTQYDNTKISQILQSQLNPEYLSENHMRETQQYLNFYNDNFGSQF
# Test: PBM E-score (8-mer binding enrichment) (E-score (-0.5 to 0.5)); higher = stronger / more preferred TF binding; most listed sequences are background and not binding sites
# Conditions: protein concentration: 200 nM; construct: GST-full length
# How it was run: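 Each ungapped eight-base word and its reverse complement, pooled, received an E-score from the Universal PBM Analysis Suite. Underlying scans, normalised with masliner, recorded fluorescent anti-GST bound to GST-tagged yeast transcription factors. These were applied at about 100-200 nM to universal all-10-mer Agilent arrays double-stranded by primer extension.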
row,Sequence,PBM E-score
1,AATATGTA,0.154
2,AGGTTCGC,-0.134
3,ACGACAGG,0.0263
4,ACTCCGCC,-0.275
5,ACTCACCC,0.0941
6,TAGAACGA,0.145
7,CGATTCGC,0.179
8,GCCGACGA,-0.0419
9,ACGTAGAC,-0.203
10,CTGAGAGC,-0.0138
11,AGAGGTCC,0.00428
12,CGAACTAC,-0.031
13,ACTATAAC,-0.0133
14,GATTGCAA,0.125
15,ACAGTAGC,-0.174
16,AGATGCGC,0.0708
17,CTGACATA,0.0932
18,ACTATTCG,-0.00555
19,CGGCACTA,0.446
20,AAATCTTA,0.0712
21,CTTTCGTC,-0.107
22,CCGCATAA,0.255
23,CCAAGAAG,0.0504
24,AGGACACT,-0.162
25,TACTAGGA,-0.15

row,Sequence,PBM E-score
1,CCAATCGG,0.00216
2,ACCGAGCC,0.177
3,CCCGGTAG,-0.0861
4,CTCATCCA,-0.0965
5,TTGGGAAA,0.133
6,ATCTTACA,0.0887
7,TAATATCA,0.245
8,CGTAAAGC,-0.151
9,AGAAAAGC,0.0215
10,GGCGCACA,0.0949
11,GACGAGAA,0.0215
12,TACAATAA,0.228
13,GGGACGAC,-0.185
14,AGCGACGA,0.0002
15,TACCATAA,0.0798
16,GTGCCACA,0.199
17,ATGTTGCA,-0.0141
18,AAAGGTCA,-0.269
19,GGTCGTTA,-0.0438
20,CCCCGCTA,0.02
21,GGGTAGCA,-0.15
22,TCACCAGA,-0.169
23,CCTAACCA,-0.0397
24,AGAGACCG,-0.185
25,ATTGTCAC,-0.00565

row,Sequence,PBM E-score
1,GCCCAATA,0.0719
2,CTTGGAGC,-0.0465
3,GCACCTCC,-0.0763
4,GCCGTATA,0.475
5,CATGGAGC,-0.0867
6,AAAGCGGA,0.0227
7,CACTGCCC,-0.071
8,AGGCGGCG,0.391
9,CATCCGAA,0.0626
10,CGGCCGTC,0.16
11,AAGAGCGC,0.12
12,ACCCCCGG,-0.439
13,GGAACACA,-0.0655
14,ACTATCCC,-0.244
15,CGGGTAAG,-0.215
16,CGTTAAAA,-0.129
17,CCCAGTAC,-0.322
18,CCTGCATA,-0.107
19,AGGACTTA,-0.277
20,AATGGGTA,-0.00846
21,GCCCCTCC,-0.0987
22,CGCACAGC,0.166
23,CGCGGATC,0.111
24,AACGGTAT,-0.0397
25,AGCTGAAC,-0.29

row,Sequence,PBM E-score
1,AAATCTGG,0.0761
2,GGTAAACA,0.123
3,AGTGAAGC,0.00666
4,AAGGGGGC,-0.273
5,AATCGACC,-0.0501
6,ATGGGGAA,-0.107
7,GTGATCAC,-0.102
8,AAGTAAGG,-0.0479
9,TACTCGAA,0.0143
10,AAAGCATC,0.0151
11,AGTTCCCC,-0.14
12,CACCAGTC,-0.243
13,ATCGTAGG,-0.121
14,GCGACACA,0.103
15,AGATTGCA,0.019
16,CCGGGCAA,-0.0318
17,CGTAGATA,0.0891
18,ATATAATG,0.00952
19,ACTGTGGG,-0.0787
20,CGAGTGAC,-0.21
21,CCCGCGTC,0.16
22,TCCTTTAA,-0.0837
23,GAGTAGCC,-0.0857
24,GTGTCGCA,-0.101
25,GCGTTACC,-0.134

row,Sequence,PBM E-score
1,CCGCGAGC,-0.106
2,GGGAGACA,-0.346
3,AATGTGCC,0.323
4,TAAGGTAA,0.182
5,GCTGCAGC,-0.0493
6,GCGGATTA,0.0482
7,ACTTTGCT,-0.222
8,CGGGTTAC,0.09
9,CAAGGGTG,-0.138
10,GAGGTGTA,0.0828
11,CTACCGTC,-0.18
12,CTAGAGAG,-0.215
13,GGAACGAA,-0.0312
14,ACCCCTTA,-0.169
15,GTGTAAGA,-0.0215
16,CTTCAGGC,0.104
17,CGCTAGAG,-0.0905
18,AACGGATC,0.163
19,CGATTAGC,-0.196
20,ATCATTCA,0.15
21,AGACAACT,-0.0416
22,CTGCGCGA,-0.132
23,ATATGTGG,0.126
24,GCTTCGAA,0.0728
25,GAGAGAGA,-0.101

row,Sequence,PBM E-score
1,CGTCATAC,0.286
2,AATTCGGC,0.126
3,GCCTTTAA,0.121
4,CACAAGTC,-0.169
5,GGCCTGGA,-0.248
6,ATGATAAT,0.0876
7,ATGCTCGA,-0.129
8,CCGTCCCA,0.111
9,AATAATCG,0.0574
10,GCTCATAA,-0.0415
11,ATCAGGTC,-0.114
12,AGTGTCCC,-0.00868
13,GATGGGTA,-0.0338
14,AAAGTGGC,0.0644
15,TCTCTTAA,0.0949
16,AAACATGA,0.181
17,ACCGGTAG,-0.244
18,CTTTGACA,0.0516
19,CACCAGCC,-0.205
20,ACGGATAC,0.249
21,TATAGCGA,-0.151
22,CTTCGCAA,0.0365
23,GGGCCATA,-0.0704
24,CTTGGCCA,-0.209
25,ACGTTTGA,0.147

row,Sequence,PBM E-score
1,GCCAGAAC,0.0102
2,CTTGGCAC,0.0548
3,ATATAGCC,0.18
4,CGGGTAGC,-0.0768
5,AGCTCGAC,-0.0623
6,CCCAGGCC,-0.257
7,ATTACCTA,-0.0583
8,AGTTATAG,-0.00421
9,ATCTTCCA,-0.208
10,GCCTGTAA,-0.203
11,ATATCTAC,0.171
12,CGGTTGTC,-0.0804
13,GCGACTAA,0.103
14,AGATAACC,-0.153
15,ACTACCAA,-0.09
16,ACCGCGGA,-0.0118
17,GCCCAGCA,-0.107
18,CAGAGACG,0.0862
19,AGTGAGAG,-0.0794
20,ACGGGGAC,-0.164
21,GAAAGAAC,0.0768
22,CGTTGACA,0.0374
